# Source: the supplement of paper PMC8728848
# The list shows a part of the results.
# How the values were obtained:
# Test in all cases: glycan array binding signal (z-score within array); higher = stronger binding
# Conditions in all cases: glycan notation: IUPAC condensed, linker removed
# [1] = biological target: Fuc(a1-2)[Gal(a1-3)]Gal(b1-4)GlcNAc(b1-2)Man(a1-3)[Fuc(a1-2)[Gal(a1-3)]Gal(b1-4)GlcNAc(b1-2)Man(a1-6)]Man(b1-4)GlcNAc(b1-4)GlcNAc
# In short: (§1)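 Negative Z-scores can be read as non-binding. The Z-score is calculated within each array and then averaged across arrays of one protein sequence at different concentrations or buffers and across linkers. Arrays, 3228 in all, were curated from the Consortium for Functional Glycomics database and kept only where the protein sequence was available.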
# [2] = biological target: Fuc(a1-2)[Gal(a1-3)]Gal(b1-4)[Fuc(a1-3)]GlcNAc
# In short: as §1
# [3] = biological target: Fuc(a1-2)[Gal(a1-4)]Gal(b1-4)GlcNAc
# In short: as §1
# [4] = biological target: Fuc(a1-2)[GalNAc(a1-3)]Gal
# In short: as §1
# [5] = biological target: Fuc(a1-2)[GalNAc(a1-3)]Gal(b1-3)GlcNAc
# In short: as §1
# [6] = biological target: Fuc(a1-2)[GalNAc(a1-3)]Gal(b1-3)GlcNAc(b1-2)Man(a1-3)[Fuc(a1-2)[GalNAc(a1-3)]Gal(b1-3)GlcNAc(b1-2)Man(a1-6)]Man(b1-4)GlcNAc(b1-4)GlcNAc
# In short: as §1
# [7] = biological target: Fuc(a1-2)[GalNAc(a1-3)]Gal(b1-4)Glc
# In short: as §1
# [8] = biological target: Fuc(a1-2)[GalNAc(a1-3)]Gal(b1-4)GlcNAc
# In short: as §1
# [9] = biological target: Fuc(a1-2)[GalNAc(a1-3)]Gal(b1-4)GlcNAc(b1-2)Man(a1-3)[GalNAc(a1-3)[Fuc(a1-2)]Gal(b1-4)GlcNAc(b1-2)Man(a1-6)]Man(b1-4)GlcNAc(b1-4)GlcNAc
# In short: as §1
# [10] = biological target: Fuc(a1-2)[GalNAc(a1-3)]Gal(b1-4)GlcNAc(b1-3)Gal(b1-4)GlcNAc
# In short: as §1
# [11] = biological target: Fuc(a1-2)[GalNAc(a1-3)]Gal(b1-4)GlcNAc(b1-3)Gal(b1-4)GlcNAc(b1-3)Gal(b1-4)GlcNAc
# In short: as §1
# [12] = biological target: Fuc(a1-2)[GalNAc(a1-3)]Gal(b1-4)[Fuc(a1-3)]GlcNAc
# In short: as §1
# [13] = biological target: Fuc(a1-2)[GalNAc(a1-4)]Gal(b1-4)GlcNAc
# In short: as §1
# [14] = biological target: Fuc(a1-2)[GalNAc(b1-3)]Gal
# In short: as §1
# Fuc(a1-3)GlcNAc = biological target: Fuc(a1-3)GlcNAc
# In short: as §1
# [15] = biological target: Fuc(a1-3)[Gal(b1-4)]Glc6S
# In short: as §1
# [16] = biological target: Fuc(a1-3)[Gal(b1-4)]GlcNAc
# In short: as §1
# [17] = biological target: Fuc(a1-3)[Gal(b1-4)]GlcNAc(b1-2)Man(a1-3)[Fuc(a1-3)[Gal(b1-4)]GlcNAc(b1-2)Man(a1-6)]Man(b1-4)GlcNAc(b1-4)GlcNAc
# In short: as §1
# [18] = biological target: Fuc(a1-3)[Gal(b1-4)]GlcNAc(b1-2)Man(a1-6)[Gal(b1-4)GlcNAc(b1-2)Man(a1-3)]Man(b1-4)GlcNAc(b1-4)GlcNAc
# In short: as §1
# [19] = biological target: Fuc(a1-3)[Gal(b1-4)]GlcNAc(b1-3)Gal(b1-3)[Fuc(a1-4)]GlcNAc
# In short: as §1
# [20] = biological target: Fuc(a1-3)[Gal(b1-4)]GlcNAc(b1-4)Gal(b1-4)[Fuc(a1-3)]GlcNAc
# In short: as §1
# [21] = biological target: Fuc(a1-3)[Gal(b1-4)]GlcNAc(b1-4)Gal(b1-4)[Fuc(a1-3)]GlcNAc(b1-4)Gal(b1-4)[Fuc(a1-3)]GlcNAc
# In short: as §1
# [22] = biological target: Fuc(a1-3)[Gal(b1-4)]GlcNAc6S
# In short: as §1
# [23] = biological target: Fuc(a1-3)[Gal3S(b1-4)]Glc6S
# In short: as §1
# [24] = biological target: Fuc(a1-3)[Gal3S(b1-4)]GlcNAc
# In short: as §1
# [25] = biological target: Fuc(a1-3)[Gal3S(b1-4)]GlcNAc6S
# In short: as §1
# [26] = biological target: Fuc(a1-3)[GalNAc(b1-4)]GlcNAc
# In short: as §1
# Fuc(a1-4)GlcNAc = biological target: Fuc(a1-4)GlcNAc
# In short: as §1
# Fuc(b1-3)GlcNAc = biological target: Fuc(b1-3)GlcNAc
# In short: as §1
# Gal(a1-2)Gal = biological target: Gal(a1-2)Gal
# In short: as §1
binder,measurement,setting,value
"Neuropilin-1 (Rattus norvegicus), Q9QWJ9 (protein) MERGLPLLCATLALALALAGAFRSDKCGGTIKIENPGYLTSPGYPHSYHPSEKCEWLIQAPEPYQRIMINFNPHFDLEDRDCKYDYVEVIDGENEGGRLWGKFCGKIAPSPVVSSGPFLFIKFVSDYETHGAGFSIRYEIFKRGPECSQNYTAPTGVIKSPGFPEKYPNSLECTYIIFAPKMSEIILEFESFDLEQDSNPPGGVFCRYDRLEIWDGFPEVGPHIGRYCGQKTPGRIRSSSGILSMVFYTDSAIAKEGFSANYSVLQSSISEDFKCMEALGMESGEIHSDQITASSQYGTNWSVERSRLNYPENGWTPGEDSYREWIQVDLGLLRFVTAVGTQGAISKETKKKYYVKTYRVDISSNGEDWITLKEGNKAIIFQGNTNPTDVVFGVFPKPLITRFVRIKPASWETGISMRFEVYGCKITDYPCSGMLGMVSGLISDSQITASNQGDRNWMPENIRLVTSRTGWALPPSPHPYINEWLQVDLGDEKIVRGVIIQGGKHRENKVFMRKFKIAYSNNGSDWKMIMDDSKRKAKSFEGNNNYDTPELRAFTPLSTRFIRIYPERATHSGLGLRMELLGCEVEVPTAGPTTPNGNPVDECDDDQANCHSGTGDDFQLTGGTTVLATEKPTIIDSTIQSEFPTYGFNCEFGWGSHKTFCHWEHDSHAQLRWRVLTSKTGPIQDHTGDGNFIYSQADENQKGKVARLVSPVVYSQSSAHCMTFWYHMSGSHVGTLRVKLHYQKPEEYDQLVWMVVGHQGDHWKEGRVLLHKSLKLYQVIFEGEIGKGNLGGIAVDDISINNHIPQEDCAKPTDLDKKNTEIKIDETGSTPGYEEGKGDKNISRKPGNVLKTLDPILITIIAMSALGVLLGAVCGVVLYCACWHNGMSERNLSALENYNFELVDGVKLKKDKLNPQSNYSEA",glycan array binding signal (z-score),[1],7.21
same,glycan array binding signal (z-score),[2],1.28
same,glycan array binding signal (z-score),[3],-0.118
same,glycan array binding signal (z-score),[4],-0.111
same,glycan array binding signal (z-score),[5],-0.205
same,glycan array binding signal (z-score),[6],0.958
same,glycan array binding signal (z-score),[7],-0.304
same,glycan array binding signal (z-score),[8],-0.194
same,glycan array binding signal (z-score),[9],5.38
same,glycan array binding signal (z-score),[10],-0.035
same,glycan array binding signal (z-score),[11],0.098
same,glycan array binding signal (z-score),[12],-0.067
same,glycan array binding signal (z-score),[13],-0.27
same,glycan array binding signal (z-score),[14],-0.404
same,glycan array binding signal (z-score),Fuc(a1-3)GlcNAc,-0.273
same,glycan array binding signal (z-score),[15],0.686
same,glycan array binding signal (z-score),[16],-0.276
same,glycan array binding signal (z-score),[17],1.35
same,glycan array binding signal (z-score),[18],-0.363
same,glycan array binding signal (z-score),[19],-0.195
same,glycan array binding signal (z-score),[20],-0.001
same,glycan array binding signal (z-score),[21],-0.172
same,glycan array binding signal (z-score),[22],0.233
same,glycan array binding signal (z-score),[23],3.8
same,glycan array binding signal (z-score),[24],-0.201
same,glycan array binding signal (z-score),[25],1.08
same,glycan array binding signal (z-score),[26],-0.216
same,glycan array binding signal (z-score),Fuc(a1-4)GlcNAc,-0.269
same,glycan array binding signal (z-score),Fuc(b1-3)GlcNAc,-0.269
same,glycan array binding signal (z-score),Gal(a1-2)Gal,0.067
